The other results are listed elsewhere or left out. Read counts after selection give these values, which scatter widely.
System: SARS-CoV-2 3CLpro (nsp5)
Assay: substrate phage enrichment score (protease-eluted vs HEPES control, +1 offset) (ratio); higher = better cleaved substrate
Conditions: selection round: 4; protease elution time: 15 min
Protocol: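 Random heptapeptide substrate phage display (M13 pIII fusion, heptapeptide between an N-terminal biotinylated AviTag GLNDIFEAQKIEWHE and pIII; phages immobilised on streptavidin) eluted by cleavage with 50 nM protease in 20 mM HEPES at 37 °C. Selected phages were NGS sequenced, and the enrichment score is (reads in protease sample + 1)/(reads in HEPES blank-selection control + 1).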

| Substance | substrate phage enrichment score |
| --- | --- |
| WQRVPSR | 2.8 |
| PPCVILQ | > 252 |
| NEAGILM | > 105 |
| RHMRGSR | 1.15 |
| SQVILQA | 63.5 |
| ASVTSLQ | 2.83 |
| GGSPSRQ | 1.45 |
| VHLQARC | > 56 |
| VISGVFV | > 23 |
| KRGTNLC | > 80 |
| KSERDAH | 4.22 |
| SSDCVIP | > 49 |
| TRDGRAT | 1.5 |
| RPAKGCV | > 22 |
| MGLAVPQ | > 24 |
| QVIKEHH | 1.7 |
| GNLDNCR | 1.93 |
| KQGGSAA | 0.579 |
| DIHNEVI | 1.54 |
| SERIRTG | 19 |
| FEAAHHH | 0.458 |
| NALPFTQ | > 27 |
| PNGYGPN | 2.55 |
| AQWASET | 13 |

| Substance | substrate phage enrichment score |
| --- | --- |
| APLTGRC | > 35 |
| SAYGSAA | 17.5 |
| PYDNSNW | > 34 |
| HSAQPGP | 0.233 |
| TLQCTQV | > 35 |
| AVEARNM | 7 |
| PSRQPRA | > 28 |
| ENQLGPS | 7 |
| TRLQSDW | > 72 |
| AGSGEAG | 3.67 |
| AHAAAHH | 2 |
| EEVRHMP | > 53 |
| VSLQIDR | 3.71 |
| SCFPARN | 0.025 |
| SHIQGWS | > 28 |
| KSQLNID | 8.6 |
| YRDNEPW | 2.5 |
| SERFLHW | 1.38 |
| CRYQKQH | > 21 |
| GCLEVRD | 9 |
| VDLPKLQ | 32 |
| ARGETTP | 1.3 |
| VSREILG | 2.75 |
| KQCSPRY | 9.8 |

| Substance | substrate phage enrichment score |
| --- | --- |
| CSAHNLW | 22 |
| AQKHCRQ | > 26 |
| FHASKPR | 35 |
| QAGPYGR | 9.23 |
| TNKHPRQ | 9.33 |
| RRVDPPS | > 101 |
| SDNSTMR | > 28 |
| TRGVPSK | 3.83 |
| AIAPIYK | 1.64 |
| RNGLNVQ | 5.22 |
| GVRCTRT | 15.3 |
| SNAAAHH | 0.529 |
| LESIPSR | 0.844 |
| SRSPPAL | > 36 |
| YCQGGSA | 6.71 |
| STLPSRL | 0.467 |
| RCVDKPI | 3.8 |
| EHGYSTG | 10 |
| AVKAKES | 11.7 |
| SAQKGTP | > 31 |
| IQPSWKS | 6.93 |
| SEGRNAA | > 34 |
| ALEGQVK | > 78 |
| LNAGDVK | 1 |

| Substance | substrate phage enrichment score |
| --- | --- |
| DHEHMPR | 1.75 |
| SRVTQGS | 0.273 |
| PETVLMQ | > 38 |
| SPHIGLC | 5.73 |
| YLTGPGR | 0.786 |
| SNATAHH | 25.5 |
| KYITELQ | 168 |
| GTSQGST | 1.21 |
| AVLQASG | 16.2 |
| YGYEHHG | > 57 |
| SHCGTTT | > 43 |
| STGRCMQ | > 30 |
| RCRMLPR | > 28 |
| DKRSITD | 0.333 |
| TNKPAQV | 1.33 |
| ESSSQVK | 0.0769 |
| CQKAYRG | > 24 |
| HDVNLKP | > 43 |
| DMGPCIR | 1.82 |
| LKNAALQ | > 183 |
| EQKGWGL | 0.438 |
| RNYQKCR | 5.67 |
| FKYPGDR | > 29 |
| QRCGDES | > 29 |

| Substance | substrate phage enrichment score |
| --- | --- |
| RQIAPLS | 3.67 |
| RGQPETS | > 24 |
| YTSTPQE | 8.8 |
| VTPLTGC | 0.611 |
| VEKSCCP | 0.333 |
| AKKDRIT | > 22 |
| HLNCAHH | > 41 |
| CESSVKP | 1.67 |
| LCHEPKV | > 28 |
| LATFRGS | 6.83 |
| SCRQKPA | > 70 |
| PNALNCS | > 21 |
| MEQASQQ | 12.5 |
| CYEAGWH | > 56 |
| PSKPTLH | 32.8 |
| SPRTRLH | > 26 |
| SLSRMSL | > 22 |
| MDDRCFM | 71.5 |
| CNAAAHH | 0.71 |
| ENPRNAD | 4.11 |
| AEGKGRQ | > 29 |
| FVHGYPS | 8.67 |
| IKSASSR | 6.25 |
| SEQNVLQ | 15 |

| Substance | substrate phage enrichment score |
| --- | --- |
| ERVDNKE | 22.5 |
| SDIPTRW | 1 |
| AFWGPCY | 0.1 |
| RPEPTKQ | 1.5 |
| SNLPALQ | 66 |
| HAAAYGQ | > 22 |
| NENGVIV | > 26 |
| YQASGAR | > 53 |
| RSYTPSN | 2.67 |
| ALKNSGN | 0.476 |
| QCKTMNG | > 45 |
| CKSSVSR | > 44 |
| VKLVPSK | 4 |
| RLWQQDN | > 32 |
| TSYSTKY | 0.154 |
| DENRLRI | > 28 |
| RQNEILR | > 38 |
| TESLRRR | 2 |
| RNEACTT | > 27 |
| SSNAAAH | 2.62 |
| LNDRHRS | 0.75 |
| SWTCHLQ | > 85 |
| SMGSSGR | 8.45 |
| QPGSQQW | > 28 |

| Substance | substrate phage enrichment score |
| --- | --- |
| EKYGSPL | 9.25 |
| SNAESCI | 0.643 |
| HLNWISP | > 21 |
| EPWPAKM | 0.357 |
| WKEQSKK | 8.67 |
| DTEQLIR | 0.655 |
| HASEWVP | 1.04 |
| ADRCKTP | 1.55 |
| RKSAHHH | 0.273 |
| GRPHIII | 0.714 |
| YEGPVNQ | > 22 |
| FNEPGTP | 23.7 |
| SRSEEAA | > 26 |
| CKHGSAR | 4.08 |
| LKLNTTR | > 28 |
| AYLQSNR | > 32 |
| NYDAVNT | 2.1 |
| TKDSVLQ | 26.5 |
| NGEASQQ | 1.64 |
| RNESLNP | > 48 |
| SSREDGL | 0.467 |
| RGAHVER | 19.1 |
| EIPVPST | > 47 |
| PGSAAHH | > 25 |

| Substance | substrate phage enrichment score |
| --- | --- |
| REAEDRQ | 1.31 |
| EDCGSRS | 1.7 |
| SHPSSDW | > 23 |
| VTFRLDC | 4.75 |
| PLTEGRC | > 41 |
| MDNQRCH | > 29 |
| KRCTKLQ | > 22 |
| RVPTADR | 10 |
| CATNLTG | 2.75 |
| PAHTDIR | 10 |
| GPTDFDR | 0.014 |
| MIRVCCM | 6.67 |
| GKYNRPT | 19 |
| RSLDLTA | 6.4 |
| AGAAHHH | 0.591 |
| SRLTSSG | 5 |
| TGSCSLQ | > 23 |
| GIPAVSQ | 7.33 |
| TKYEQPW | 0.867 |
| SWSLSEF | > 37 |
| CKTTGEQ | > 52 |
| GSAAAHH | 0.692 |
| CGKLGVY | 2.22 |
| SPGHQAP | > 23 |

| Substance | substrate phage enrichment score |
| --- | --- |
| KCGQWAG | > 24 |
| AELMGTS | > 21 |
| GGTVLQG | 20 |
| QQEGNVA | > 23 |
| DMQAETW | > 29 |
| TSKLNDR | > 23 |
| LTGVSDR | 3 |
| DESNDMI | 1.5 |
| CSAHNMR | 16.5 |
| GPDAQYR | > 22 |
| RAYQLNA | 6.62 |
| KSHRKQP | 1.18 |
| VPTTTLQ | 58 |
| DPQSNRV | 2.67 |
| LPRTHHS | 1.07 |
| HYPLMKP | > 152 |
| RRGTLTD | 10 |
| PSSVMMG | > 24 |
| TSTGTAT | 0.05 |
| KAHLKDS | 1.25 |
| NSAATLS | 3.14 |
| SAACMKR | > 25 |
| QCPRPGQ | 8.3 |
| AHRSTVT | > 24 |

| Substance | substrate phage enrichment score |
| --- | --- |
| CNFQGGS | 1.6 |
| LGGSAAA | 2.47 |
| SHLSVLH | 12.5 |
| VTESAPW | 2.39 |
| KGWNTHQ | 5.75 |
| SKIKQNL | 3.6 |
| KPNNQGG | > 39 |
| ESASDLS | 10.5 |
| NNPPTRA | 3.4 |
| VGSAAAH | 0.647 |
| HHHGAAE | 0.312 |
| CPLSPYN | 0.972 |
| RTQLNGC | > 26 |
| RQSKLSG | 0.2 |
| RSWSVHT | 0.12 |
| ARPTVLQ | > 24 |
| RRVDEAT | 8.33 |
| SVPKLCA | 0.562 |

Source: the supplement of paper PMC10185492
